Test results published in patent US20180057601A1 (PIERRE FABRE MEDICAMENT, published 2018).

What was measured:
[1] = target: T1, soluble ADAM17 (extracellular domain of ADAM-17) (human, UniProt P78536 215-671); assay: SPR (Biacore) single cycle kinetics, antibody captured by anti-human IgG Fc at 452.0 RU, ADAM17 12.5-200 nM
T1 construct: also called TACE
Description: (§1) Each antibody (used as the ligand) was bound at two different level on the second flowcell of a Biacore CM5 sensor chip (GE Healthcare) activated on both flowcells with a mouse anti-human IgG Fc specific covalently linked to the carboxymethyldextran matrix. For each antibody and each level of capture, five concentrations of soluble ADAM17 (the analyte with a molecular weight of 52 kDa) at concentrations ranging either from 12.5 to 200 nM or from 6.25 to 100 nM obtained by a two fold dilution scheme were injected in the growing range of concentrations at a flow rate of 30 μl/min. Each concentration was injected during 90 s. At the end of the 5th injection, the running buffer was injected during 600 s for the dissociation phase measurement. At the end of each cycle, the surface was regenerated by an injection of 10 mM Glycine, HCl pH 1.7 buffer during 30 s. The sensorgramms obtained were double referenced by first subtracting the signal from the reference FC1 surface (without any anti-ADAM17 antibodies) followed by subtraction of the sensorgramm obtained for each antibody and each level of capture by 5 injections of the running buffer (Biacore HBS-EP buffer). Data were processed using BIAevaluation 3.1 software using the 1:1 Langmuir model.

[2] = target: T1, soluble ADAM17 (extracellular domain of …); assay: SPR (Biacore) single cycle kinetics, antibody captured by anti-human IgG Fc at 452.0 RU, ADAM17 6.25-100 nM
Description: as §1

[3] = target: T1, soluble ADAM17 (extracellular domain of …); assay: SPR (Biacore) single cycle kinetics, antibody captured by anti-human IgG Fc at 1152.6 RU, ADAM17 12.5-200 nM
Description: as §1

[4] = target: T1, soluble ADAM17 (extracellular domain of …); assay: SPR (Biacore) single cycle kinetics, antibody captured by anti-human IgG Fc at 1152.6 RU, ADAM17 6.25-100 nM
Description: as §1

[5] = target: T1, soluble ADAM17 (extracellular domain of …); assay: SPR (Biacore) single cycle kinetics, antibody captured by anti-human IgG Fc at 1171.0 RU, ADAM17 12.5-200 nM
Description: as §1

[6] = target: T1, soluble ADAM17 (extracellular domain of …); assay: SPR (Biacore) single cycle kinetics, antibody captured by anti-human IgG Fc at 480.5 RU, ADAM17 12.5-200 nM
Description: as §1

[7] = target: T1, soluble ADAM17 (extracellular domain of …); assay: SPR (Biacore) single cycle kinetics, antibody captured by anti-human IgG Fc at 480.5 RU, ADAM17 6.25-100 nM
Description: as §1

[8] = target: T1, soluble ADAM17 (extracellular domain of …); assay: SPR (Biacore) single cycle kinetics, antibody captured by anti-human IgG Fc at 1171.0 RU, ADAM17 6.25-100 nM
Description: as §1

[9] = target: T1, soluble ADAM17 (extracellular domain of …); assay: SPR (Biacore) single cycle kinetics, mean ± SE of the four runs
Description: as §1

T1 sequence (P78536 215-671): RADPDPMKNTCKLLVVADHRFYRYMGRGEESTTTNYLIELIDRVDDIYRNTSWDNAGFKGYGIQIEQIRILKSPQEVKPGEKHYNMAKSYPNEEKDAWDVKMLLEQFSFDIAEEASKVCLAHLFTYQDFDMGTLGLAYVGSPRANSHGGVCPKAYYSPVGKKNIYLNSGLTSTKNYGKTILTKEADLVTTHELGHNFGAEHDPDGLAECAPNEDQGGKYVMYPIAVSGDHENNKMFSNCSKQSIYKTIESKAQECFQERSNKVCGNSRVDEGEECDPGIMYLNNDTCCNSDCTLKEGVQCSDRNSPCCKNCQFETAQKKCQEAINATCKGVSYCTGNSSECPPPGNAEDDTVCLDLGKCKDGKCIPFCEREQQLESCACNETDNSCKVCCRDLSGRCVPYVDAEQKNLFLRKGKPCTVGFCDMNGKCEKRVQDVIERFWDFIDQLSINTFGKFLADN

B1: Hz1022C3 IgG1 (antibody)
heavy: QVQLQESGPGLVKPSETLSLTCTVSGFSLDTSGMGVSWIRQPAGKGLEWIGHIYWDDDKRYNPSLKSRVTMSKDTSSNQVSLKLSSVTAADTAVYYCARRSHFGNYYYAMDYWGQGTTVTVSSASTKGPSVFPLAPSSKSTSGGTAALGCLVKDYFPEPVTVSWNSGALTSGVHTFPAVLQSSGLYSLSSVVTVPSSSLGTQTYICNVNHKPSNTKVDKRV[not shown - human IgG1 Fc]
light: DIQMTQSPSSLSASVGDRVTITCRASQDISSYLNWYQQKPGKAPKLLIFYTSRLQSGVPSRFSGSGSGTDFTLTISSLQPEDFATYYCQQGKTLPLTFGGGTKVEIKRTVAAPSVFIFPPSDEQLKSGTASVVCLLNNFYPREAKVQWKVDNALQSGNSQESVTEQDSKDSTYSLSSTLTLSKADYEKHKVYACEVTHQGLSSPVTKSFNRGEC
notes: also called humanized 1022C3 IgG1
Kd [1]: 1 nM | koff [1]: 0.000227 s⁻¹ | kon [1]: 227000 M⁻¹ s⁻¹ | Kd [2]: 0.83 nM | koff [2]: 0.000224 s⁻¹ | kon [2]: 268000 M⁻¹ s⁻¹ | Kd [3]: 1.61 nM | koff [3]: 0.000246 s⁻¹ | kon [3]: 153000 M⁻¹ s⁻¹ | Kd [4]: 1.36 nM | koff [4]: 0.000242 s⁻¹ | kon [4]: 178000 M⁻¹ s⁻¹

B2: Hz1022C3 IgG4 (antibody)
heavy: QVQLQESGPGLVKPSETLSLTCTVSGFSLDTSGMGVSWIRQPAGKGLEWIGHIYWDDDKRYNPSLKSRVTMSKDTSSNQVSLKLSSVTAADTAVYYCARRSHFGNYYYAMDYWGQGTTVTVSSASTKGPSVFPLAPCSRSTSESTAALGCLVKDYFPEPVTVSWNSGALTSGVHTFPAVLQSSGLYSLSSVVTVPSSSLGTKTYTCNVDHKPSNTKVDKRV[not shown - human IgG4 Fc with S228P (EU numbers)]
light: B1 light
notes: also called humanized 1022C3 IgG4
Kd [5]: 1.38 nM | koff [5]: 0.000182 s⁻¹ | kon [5]: 132000 M⁻¹ s⁻¹ | Kd [6]: 0.91 nM | koff [6]: 0.000176 s⁻¹ | kon [6]: 194000 M⁻¹ s⁻¹ | Kd [7]: 0.76 nM | koff [7]: 0.000177 s⁻¹ | kon [7]: 233000 M⁻¹ s⁻¹ | Kd [8]: 1.16 nM | koff [8]: 0.000182 s⁻¹ | kon [8]: 156000 M⁻¹ s⁻¹ | Kd [9]: 1.05 nM
